The text below walks through data of the RNAGym collection of RNA variant scans (doi:10.1073/pnas.2313332121).

This sample is rich in variants without activity. Bounds are passed on as bounds.

Sequences and labels used below:
B1: TPR 5TU (parent)
chain: GGAUCUUCUCGAUCUAACAAAAAAGACAAAUCUGCCACAAAGCUUGAGAGCAUCUUCGGAUGCAGAGGCGGCAGCCUUCGGUGGCGCGAUAGCGCCAACGUUCUCAACUAUGACACGCAAAACGCGUGCUCCGUUGAAUGGAGUUUAUCAUG

The data set covers variants of B1. Nature of the data set: polymerase ribozyme fitness, log enrichment relative to wild type (log ratio); higher = more active; in vitro selection for triplet polymerase activity. In a few lines: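 Fitness is a logarithmic measure of how a genotype enriched relative to the wild type, with replicate averages weighted by inverse variance. The logarithm uses base 2, and enrichment came from Illumina sequencing of input and output libraries. Those libraries were PCR-built, transcribed mutants of each subunit of a heterodimeric triplet polymerase ribozyme, passed through one triplicate in vitro selection round that included frozen incubation at −7 °C, gel excision of extended constructs and streptavidin-bead capture. Genotypes were kept only if they had ≥10 input reads and ≥1 read per output.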
Take GGAUCUUCUCUAUCUAACAAAAAAGACAAAUCUGCCACAAAGCUUGAGAUCAUCUACGGAUGCAGAGGCGGCAGCCUUCGGUGGCGUGAUAGCGCCAACGUUCUCAACUAUGACACGCAAAACGCGUGCUCCGUUGAAUGGAGUUUAUCACG [G11U G50U U56A C87U U151C]: the “polymerase ribozyme fitness (log ratio)” value is at most -4.2.
As for GGAUCUUCUCUAUCUAACAAAAAAGACAAAUCUGCCACAAAGCUUGAGAGCAUCUUCGGAUGCAGAGGCAGCAGCCUUCGGUGGUGCGAUAGCUCCAACGUUCUCAACUAUGACACGCAAAACGCGUGCUCCUUUGAAUGGAAUGUAUCAUG [G11U G70A C85U G94U G133U G143A U145G], the figure is at most -4.2; as for GGAUCUUCUCUAUCUAACAAAAAAGACAAAACUGCCACAAAGCUUGAGAGCAUCUUCGGAUGCAGAGGCGGCAGCCUUCGGUGGCGAGAUAGUGCCAAGGUUCUCAACUAUGACACGCAAAACGCGUGCUCCGUUGAAUGGAGUUUAUCAUG [G11U U31A C87A C93U C99G], at most -4.2; as for GGAUCUUCUCGCUCUAGCAAAAAAGACAAAGCUGCCACAAAGCAUGAGAGCAUCUUCGGAUGCAGAGGCGGCAGCCUUCGGUGGCGCGAUAGUGCCAAUGUUCUCAACUAUGACACGCAAACCGCGUGCUCCGAUGAAUGGGGUUUAUCAUG [A12C A17G U31G U44A C93U C99U A122C U134A A142G], at most -4.2.
As for GGAUCUUCUCUAUCUAACAAAAAAGACAAAUUUGCCACAAAGCUUGAGAGCAUCUUCGGAUGCAGAGGCGGCAGCCUUCGGUGGCGCGAUAGGGCCAACGUUCUCAGCUAUGACACGCAAAACGCGUGCUCCGUUGAAUGGAGUUUAUCAUG [G11U C32U C93G A107G], the figure is at most -4.2; as for GGAUCUUCUCGCUCUCACAAAAAAGACAAAUCUGCCACAAAGCUUGAGAGCAGCUUCGGAUGCAGAGGCGGCAGCCUUCGGUGGAGCGAUAGCGCCAAAGUUCUCAACGAUGACACGCAAAACGCGUGCUCCAUUGAAUGGAAUUUAUCAUG [A12C A16C U53G C85A C99A U109G G133A G143A], at most -4.2.
As for GGAUCUUCUCUAUCUAACAAAAAAGACAAAUCUGACACAAAGCUUGAGAGCAUCUUCGGAUGCAGAGGCGGCAGCCUUCGGUGGCGCGAUAGCGCCAACGUUCUCAACUAUGACACGCAAAACGCGUGCUCCGUUAAAUGGAGUUGAUCAUG [G11U C35A G136A U146G], the figure is at most -4.2; as for GGAUCUUCUCUAUCUAACAAAAAAGACAAAUCUGCCACAAAGCUUGAGAGCAUCUUCGGAUGCAGAGGCGGCAGCCUUCGGUGGCGCGAUGGCGCCAACGUUCUCAACUAUGACACGCAAAACGCGUGCUCCGUUGAAUGGAGUUUAUCAUG [G11U A91G], -3.82.
On to GGAUCUUCUCUAUCUAACAAAAAAGACAAAUCUGCCACAAAGCUUGAGAGCAUCUUCGGAUGCAGAGGCGGCAGCCUUCGGUGGAGCGAUAGCGCCAACGUUCUCAACUAUGACACGCAAAACGCGUGCUACGUUGGAUGGAAUUUAUCAUG [G11U C85A C131A A137G G143A], for which the “polymerase ribozyme fitness (log ratio)” value is at most -4.2.
Next, GGAUCUUCUCUAUGUAACAAAAAAGACAAAUCUGCCACAAAGCUUGAGAGCAUCUUCGGAUGCAGAGGCGGCAGCCUUCGGUGGCGAGAUAGCGCCAACGUUCUCAACUAUGACACGCAAUACGAGUGCUCCGUUGAAUGGAGUUUAUCAUG [G11U C14G C87A A121U C125A]: at most -4.2.
Next, GGAUCUUCUCUAUCUAACAAAAAAGACAAAUCUGCCACACAGCUUGAGAGCAUCUUCGGAUGCAGAGGCCGCAGCCUUCGGUGGCGCGAUAGCGCCAACGUUGUCAACUAUGACACGCAAAACGCGUGCUCCGUUGAAUGGAGUUUAUCAUG [G11U A40C G70C C103G]: at most -4.2; GGAUCUUCUCUAUCUAACAAAAAAGACAAAUCUGCCACAAAACUUGAGAGCAUCUUCGGAUGCAGAGGCGGCAGCUUUCGGUGGCGCGAUAGCCCCAACGUUCUCAACUAUGACACGCAAAACGCGUGGUCCGUUGAAUGGAGUUUAUCAUG [G11U G42A C76U G94C C129G]: at most -4.2.
GGAUCUUCUCUAUCUAACAAAAAAGACAAAUCUGCCACAAAGCUUGAGAGCAUCUUCGGAUGCAGAGGCGGCAGCAUUCGGUUGAGCGAUAGCGCCAACGUUCUCAACUAUGACACGCAAAACGCGUGCUCCGUUGGAUGGAGUUUAUCAUG [G11U C76A G83U C85A A137G]: the “polymerase ribozyme fitness (log ratio)” value was at most -4.2.
Take GGAUCUUCUCUAUCUAACAAAAAAGACAAAUCUGCCACAAAGCUUGAGAGCAUCUUCGGAUGCAGAGGCGGCAGCCUUCGGUGGCGGGAUAGCGCCAACGUUCUCAACUAUGACACGCAAAACGCGUGCUCCGUUGAAUGGAGUUUAUCAUG [G11U C87G]: the “polymerase ribozyme fitness (log ratio)” value is -4.09.
Next, GGAUCUUCUCUAACUAUCAAAAAAGUCAAAUCUGCCACAACGCUAGAGAGCAUCUUCGGAUGCAGAGGCGGCAGCCUUCGGUGGCGAGAUAGCGCCAACGUUCUCAAUUAUGACACGCAAAACGCGUGCUCCGUUGAAUGGCGUUUUUCAUG [G11U U13A A17U A26U A41C U45A C87A C108U A142C A147U]: at most -4.2.
As for GGAUCUUCUCUAUCUAACAAAAAAGACAAAUCUGCCACCAAGCUUGAGAGCAUCAUCGGAUACAGAGGCGGCACCCUUCGGUGGUGCGAUAGCGCCAACGUUCUCAACUAUGACACGCAAAACGCGUGCACCGUUGAAUCGAGUUUAGCAUG [G11U A39C U55A G62A G74C C85U U130A G140C U148G], the figure is at most -4.2; as for GGAUCUUCUCUAUCUAACAAAAAAGAUAAAUCUGCCACAAAGCUUGAGAGCAUCUUCGGAUGCAGAGGCGGCAGCCUUCGGUGGCGGGAUAGCGCCAACGUUCUCAACUAUGACACGCAAAACGCGUGCUCCGUUGAAUGGAGUUUAUGAUG [G11U C27U C87G C149G], at most -4.2.
GGAUCUUCUCGCUCUUACAAAAAAGACAAAUCUGCCACAAAGCUUGAGAGCAUCUUCGGAUGCAGAGGCGGCAGCCUUCGGUGGCGGGAUAGCGCCAACGUUCUCAACUAUGACACGCAAAACGCGUGCUCCGUUGAAUGGAGUUUAUCAUG [A12C A16U C87G]: the “polymerase ribozyme fitness (log ratio)” value was at most -4.2.
Take GGAUCUUCUCUAUCUAACAAAAAAGACAAAUCUACCACAAAGCUUGAGAACAUCUUCGGAUGCAGAGGCGGCAGCCUUCGGUGGUGCGACAGCGCCAACGUUCUCAACUAUGACACGCAAAACGCGUGCUCCGUUGAAUGGAAUUUAUCAUG [G11U G34A G50A C85U U90C G143A]: the “polymerase ribozyme fitness (log ratio)” value is at most -4.2.
